Some of the results follow.

The labels stand for the following.
B1: chrX:42777473:42778079:-|CDS|ENSG00000102055|control|control|control (ssRNA)
RNA: GGGAGUUCUACAGUCCGACGAUCCGGCAGUUCGAAAUGAGAAGAAGGCUUCACUACAACGAAGAAUUGAACAUCAAAUUAGCUAGACAAUUAAUGUGGAAAGAGCUACAAAGUGAAGAUAAUGAAAACGAAGAAACGCCACAACAACAGAGGAUUGAGCAUCA
B2: chr5:37333503:37333606:-|CDS|ENSG00000113569|unk|FALSE|unique (ssRNA)
RNA: GGGAGUUCUACAGUCCGACGAUCGAUGACAGCUGGUGUUGAUGGUCAUUCCUGGGCUCUUUCUGCGAUAGAUGAAUUGAAAGUAGAUAAAAUAAUUACACCUUUAAACAAGGAUCAUAUUCCAAUAACUGAUUCACCAGUUGUCAACAGAGGAUUGAGCAUCA
B3: chr17:64039079:64045293:-|three_prime_utr|ENSG00000178607|control|control|control (ssRNA)
RNA: GGGAGUUCUACAGUCCGACGAUCUUUCUUGGGUGUGUCCUCUGUGGUUUGGUUACACUGAUGUGUGUUUCAUUUUUGUUCCCUAGAGUGACAGGUGAGUGAUGGUGUCGUGCUCUAGGUGGUCAUUUCUGACCUGGGUGUGAUCAACAGAGGAUUGAGCAUCA
B4: chr4:55904547:55904648:+|3pUTR|ENSG00000090989|msi1|total|mutant (ssRNA)
RNA: GGGAGUUCUACAGUCCGACGAUCAAAAUACCAAGCAACUGUUUUGAGAACCCAGACUUAAAAUUUUAUGUAUUAUUAAAUGUCCGAUAAAUGGGCCGUACCAUACUACAAAUAUUUAAAUGCAAAAUUACCAACCUAUACCGCCAACAGAGGAUUGAGCAUCA
B5: ENSG00000070961:be:win_4551|3pUTR|ENSG00000070961|bound_else_gene|NA|bound_elsewhere_windowed (ssRNA)
RNA: GGGAGUUCUACAGUCCGACGAUCAAUGAAAGAUGCUUGAAAUGCUUUUGUUAUUUCAGGCAAAUCAAAUUAAAUCAGACUAUCAAACUACAAGAGAACCUUAGUCUUUUUUGUUUUUGUCUAAACAUGUUAGUUUAGUGAUGUCAACAGAGGAUUGAGCAUCA
B6: ENSG00000136451:be:win_301|CDS|ENSG00000136451|bound_else_gene|NA|bound_elsewhere_windowed (ssRNA)
RNA: GGGAGUUCUACAGUCCGACGAUCUUGGUGUCCCGGCCAAAGAAAACCCCCACCACGGUGGUUCCCCUUAUCUCUACCAUCGCUGGGGACAGCAGCCGAACUUCGUUGGUCUCGACCAUUGCAGGCAUCUUGUCAACAGUCACUCAACAGAGGAUUGAGCAUCA
B7: ENSG00000198589:be:win_9101|3pUTR|ENSG00000198589|bound_else_gene|NA|bound_elsewhere_windowed (ssRNA)
RNA: GGGAGUUCUACAGUCCGACGAUCUUCAAGCAUGUUUUAGACCUAGAAAAGUAUGGUUUGGGGGAGGCUAUUUUAUUGUGUGGUUAGCACAAGGAAUCUAAUUUAUAGCAAGUGUGAAAUAGUUACCAUUUUUUCCUGAUCUGUCAACAGAGGAUUGAGCAUCA
B8: chr5:80438700:80438808:+|CDS|ENSG00000039319|unk|FALSE|unique (ssRNA)
RNA: GGGAGUUCUACAGUCCGACGAUCAGAUACAAUAGAAAGUGAACCCAGCACAGCAGAUACCGUUGUUCCAAUCACUUGUGCUAUAGAUUCUACAGCUGAUCCACAGGUUAGCUUCAACUCUAAUUACAUUGAUAUAGAAAGUAACAACAGAGGAUUGAGCAUCA
B9: chr4:52020705:52023956:-|three_prime_utr|ENSG00000163069|control|control|control (ssRNA)
RNA: GGGAGUUCUACAGUCCGACGAUCGUGAUAACUCAUAAUUAUUUUAAUGGCAGAGCACUGCUGUAUCUGUUUUAUGGUCUACAUAGUUAAAAUCUUCUCAGAGAGCCUAAAUUCUAAUACAUUUUAUUAAUUUAUACUAAUCUUCAACAGAGGAUUGAGCAUCA
B10: ENSG00000198589:be:win_4001|CDS|ENSG00000198589|bound_else_gene|NA|bound_elsewhere_windowed (ssRNA)
RNA: GGGAGUUCUACAGUCCGACGAUCGAAGCCAUUCAACAAAGACAGUUAUGGACUUCGUGAAUAGCAGUGAUAAUGUCAUCUUUGUACACAACACAAUUCAUCUCAUCUCUCAAGUGAUGGACAAUAUGGUCAUGGCUUGUGGGGCAACAGAGGAUUGAGCAUCA
B11: chr3:149318497:149321477:-|three_prime_utr|ENSG00000163762|control|control|control (ssRNA)
RNA: GGGAGUUCUACAGUCCGACGAUCGACAAAAUGUUUUCCAUUAUCAAGACAUGGCCAUCUAUCUAAAUAUUAUAUCAACUGUGUAGACUUGAGGGCAAUAUUGAAAUGAUGGUGCUUUCUGCAUUUGGUGUUUAUUUGUAAAAACAACAGAGGAUUGAGCAUCA
B12: chr2:45599705:45599806:-|CDS|ENSG00000068784|msi1|total|mutant (ssRNA)
RNA: GGGAGUUCUACAGUCCGACGAUCCUCAUAUGUUCUCUUUGUGGUUUGACCGAACCGCUCUGUGGCUAUUGCUGAUACUGCUUCCGAAGACAGAAAAAAUAAAUUGGAUACUGUACAGACUCUGAAAACAGCCAAGACAAAACACAACAGAGGAUUGAGCAUCA
B13: chr19:2933217:2933488:-|three_prime_utr|ENSG00000175691|control|control|control (ssRNA)
RNA: GGGAGUUCUACAGUCCGACGAUCGACCUGGGAGAGUGUUCAACCGUAAAACCUUGUUGUAAAUGUGAGAAACGUUAUUUAUGUAGAGCAUGUAGGAAAACCUGGUAUAGCACUUAUUUUGUACCUAAAAAUUCAGAGUAGGAGCAACAGAGGAUUGAGCAUCA
B14: chr15:88464702:88464876:-|CDS|ENSG00000259494|control|control|control (ssRNA)
RNA: GGGAGUUCUACAGUCCGACGAUCUGAUGAAAAGAAUGACCGAACAUCCCUGAACAGGAAGCUAGACAGGAACCUUGUCCUGUUAGUCAGAGAGAAGUUUGGAGACCAGGAUGUUUGGAUACUGCCCCAGGCAGAGUGGCAGCCCAACAGAGGAUUGAGCAUCA
B15: chr3:53865378:53865479:+|3pUTR|ENSG00000056736|unk|total|mutant (ssRNA)
RNA: GGGAGUUCUACAGUCCGACGAUCAUUACAGGGAAAAAACGUGUGAUGAUCCUGAAGCUUACUAUGCAGCCUACAAACAGCCUCCGUAAUUAAAACAUUUUAUACCAAUAAAAUUUUCAAAUAUUGCUAACUAAUGCCGCAUUACAACAGAGGAUUGAGCAUCA
B16: ENSG00000107863:be:win_6001|3pUTR|ENSG00000107863|bound_else_gene|NA|bound_elsewhere_windowed (ssRNA)
RNA: GGGAGUUCUACAGUCCGACGAUCUUGCACUGUGAAAUAGCUUUACAGUGCAUUACUACAGCCAGAAGAACAUAUAUAUAUAUAUAUAUAUUUAAAAAUAUAUCGGAUAGUUGUAUACAAAUGAGCAAGGUAUUUGUUGCAACUCAACAGAGGAUUGAGCAUCA
B17: chr6:41099391:41099486:+|3pUTR|ENSG00000001167|msi1_unk|FALSE|overlapping (ssRNA)
RNA: GGGAGUUCUACAGUCCGACGAUCAGUGCUUAAGCUGCCAACAGUUAGAAGAUGCUAUUUAUUUGUGUCUGUAAGUUUGUACAUAGUAAUGCCAGCCUUGUUGCUGAAUUUUUUAUUUGGGGGGAGAUGACUUUGAAUUUUGUUCAACAGAGGAUUGAGCAUCA
B18: chr5:150657389:150657496:+|3pUTR|ENSG00000171992|unk|FALSE|bound_elsewhere (ssRNA)
RNA: GGGAGUUCUACAGUCCGACGAUCCUCUCUCUCUCUCUCACACACACACACACACACACACACACACACACACACACACACACUAGUUAGUGCCUUGGAUGAGGCGGGGCAGUGUGUAUAUGGACCCCUGGACUUGCUACCUUCCAACAGAGGAUUGAGCAUCA
B19: chr20:11926050:11926151:+|3pUTR|ENSG00000132640|msi1|total|mutant (ssRNA)
RNA: GGGAGUUCUACAGUCCGACGAUCAUGAAAUGGAAUGAAGGCUAAUAUGCUUGCUUUAUUUACUUUUGUAAUCUUGGAUUUUGCCGCUUUUAAAACCCGAAACCAUUGUUCUAACAAAGCAGGCAACUUUAUUCUAUAAACACACAACAGAGGAUUGAGCAUCA
B20: chr5:113594843:113594944:+|3pUTR|ENSG00000047188|msi1|total|mutant (ssRNA)
RNA: GGGAGUUCUACAGUCCGACGAUCCAACAUAAAAUCUUGAGAACCUUCUACUUUCUCUGGGAAAGCAUUAUACCGUGGUGCAUCCGUUCCGAAAGUCAGCUAUGAUUUUGCCUACCGUUCCCGUUAUCCGCUUUGGGGUUUUCUCAACAGAGGAUUGAGCAUCA
B21: chr7:6023389:6023508:+|CDS|ENSG00000106305|unk|total|mutant (ssRNA)
RNA: GGGAGUUCUACAGUCCGACGAUCGUUCUCUCUGUUUGGCCAGAAGCAUAAUGCUGUCAACGCAACCCUUACCGACCGCUGGGCCGAUAUUGCGAUUUUUCAGUUAAAAGAGGGAAGCAGUAAAGAAAAAGCCGCUGUUUUCCGCAACAGAGGAUUGAGCAUCA
B22: chr2:20282997:20283108:-|CDS|ENSG00000055917|unk|FALSE|unique (ssRNA)
RNA: GGGAGUUCUACAGUCCGACGAUCACUAAUCUGCAAUCUAAUUCAUUUUAUGGAAGCAGUUCUUUGACUAAUAGCUCCCAGAGUAGUUCUUUAUUUUCUCAUGGACCUGGUCAACCUGGAAGUACAUCUCUUGGCUUUGGAAGUCAACAGAGGAUUGAGCAUCA

This assay concerns the target MSI1 full-length (mouse, UniProt Q61474 1-362). The assay can be described thus: nsRBNS (natural sequence RNA bind-n-seq); RBNS binding buffer (assumed for nsRBNS): 25 mM Tris pH 7.5, 150 mM KCl, 3 mM MgCl2, 0.01% Triton X-100, 500 ug/ml BSA, 20 U/ml SUPERase-In, 4 C; UNK is unkempt and MSI1 is Musashi-1; names of the RNAs are library labels; protein concentration not given here; high values mean tight binding.
Chain of UniProt Q61474 (Q61474 whole entry): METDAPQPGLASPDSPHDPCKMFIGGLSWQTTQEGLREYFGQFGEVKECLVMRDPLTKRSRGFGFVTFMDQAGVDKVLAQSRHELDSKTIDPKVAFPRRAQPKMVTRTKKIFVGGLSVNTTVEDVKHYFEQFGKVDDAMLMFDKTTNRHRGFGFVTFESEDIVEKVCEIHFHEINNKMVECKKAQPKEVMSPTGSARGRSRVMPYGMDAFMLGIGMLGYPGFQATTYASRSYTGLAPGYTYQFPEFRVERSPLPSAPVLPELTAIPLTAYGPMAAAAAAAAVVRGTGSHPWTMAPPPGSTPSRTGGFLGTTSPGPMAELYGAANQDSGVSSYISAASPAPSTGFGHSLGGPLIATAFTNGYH
Turning to B1, the binding signal worked out at 2.52 enrichment R.
The figure for B2 is 4.59 enrichment R.
Under B3 stands 0.428 enrichment R; under B4, 1.79 enrichment R.
The figure for B5 is 1.39 enrichment R; for B6 it is 0.365 enrichment R.
For B7, the binding signal was 7.83 enrichment R.
B8 yielded a binding signal of 2.36 enrichment R.
As to B9, the binding signal came to 10.2 enrichment R.
The figure for B10 is 0.256 enrichment R; for B11 it is 0.474 enrichment R; for B12 it is 0.284 enrichment R.
Under B13 stands 3.17 enrichment R.
In the case of B14, the binding signal is 0.466 enrichment R.
Molecule B15 displayed a binding signal of 0.347 enrichment R.
B16 registered a binding signal of 0.732 enrichment R.
Under B17 stands 6.94 enrichment R; under B18, 2.33 enrichment R.
The figure for B19 is 0.37 enrichment R; for B20 it is 0.394 enrichment R; for B21 it is 0.367 enrichment R.
Under B22 stands 0.97 enrichment R.
